Results from the supplement of paper PMC6089552.
Values joined by “and” are separate entries in the source; they are usually repeats but may differ in a detail not shown here. Equal values may be shown once. Hit rate of the full screen: of about 3,200 compounds, about 300 (9.4%) showed activity. The entries are a selection whose mix differs from that of the whole data set.

System: A673/TR/shEF
Test: cell viability (LOESS-normalised, relative to median of negative controls) (log2 ratio); higher = more viable cells (less compound effect), active = hit call of the paper (over 3 MAD below the median)
Details: treatment time: 72 h
Procedure, shortened: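 A673/TR/shEF Ewing sarcoma cells (1,500 per well, 384-well plates) were grown with or without doxycycline to induce EWS-FLI1 shRNA knockdown, starting 24 h before compounds. Library compounds at two or more concentrations, with DMSO controls, were added for three days. Cell viability was read by CellTiter-Glo luminescence on an Envision reader, then LOESS-corrected per plate, divided by the median of negative controls and log2-transformed. Hits were wells at least three median absolute deviations from the median of all screened wells.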

[1] = 0.25 µM, library screen: screen1, EWS-FLI1 expression: high (no doxycycline)
[2] = 0.25 µM, library screen: screen1, EWS-FLI1 expression: low (doxycycline-induced shRNA knockdown)
[3] = 0.25 µM, library screen: screen2, EWS-FLI1 expression: high (no doxycycline)
[4] = 0.25 µM, library screen: screen2, EWS-FLI1 expression: low (doxycycline-induced shRNA knockdown)
[5] = 2.5 µM, library screen: screen1, EWS-FLI1 expression: high (no doxycycline)
[6] = 2.5 µM, library screen: screen1, EWS-FLI1 expression: low (doxycycline-induced shRNA knockdown)
[7] = 2.5 µM, library screen: screen2, EWS-FLI1 expression: high (no doxycycline)
[8] = 2.5 µM, library screen: screen2, EWS-FLI1 expression: low (doxycycline-induced shRNA knockdown)

Measured: cell viability (log2)

CNC(=O)Oc1ccc2c(c1)[C@]1(C)CCN(C)[C@@H]1N2C
inactive: [1] 0.0623 and 0.086 | [2] 0.109 and 0.0231 | [3] 0.208 | [4] 0.095 | [5] 0.115 and 0.142 | [6] 0.161 and 0.0648 | [7] 0.149 | [8] 0.0834

COc1ccc(C[C@H]2c3cc(OC)c(OC)cc3CCN2C)cc1OC
inactive: [1] 0.0762 | [2] 0.101 | [5] 0.079 | [6] 0.165

CC1CC(Cl)CCC1C(=O)OC(C)(C)C (stereo not given)
inactive: [1] -0.0203 | [2] 0.0889 | [5] 0.151 | [6] 0.103

O=C(O)c1cc[c]([Hg][Cl])cc1
active: [7] -0.0791

FC(F)(F)c1cccc(N2CCNCC2)c1
inactive: [1] 0.112 | [2] 0.0689 | [5] 0.176 | [6] 0.0985

CC1=NN=C(c2ccc(N)cc2)c2cc3c(cc2C1)OCO3
inactive: [3] 0.2 | [4] 0.141 | [7] 0.102 | [8] 0.0639

C=C1C[C@@H]2[C@H](CC[C@]3(C)C(=O)CC[C@@H]23)[C@@]2(C)C=CC(=O)C=C12
inactive: 0.103 µM, library screen: screen3, EWS-FLI1 expression: high (no doxycycline) -0.0682 | 0.103 µM, library screen: screen3, EWS-FLI1 expression: low (doxycycline-induced shRNA knockdown) -0.0022 | 0.308 µM, library screen: screen3, EWS-FLI1 expression: high (no doxycycline) 0.032 | 0.308 µM, library screen: screen3, EWS-FLI1 expression: low (doxycycline-induced shRNA knockdown) 0.0326 | 0.926 µM, library screen: screen3, EWS-FLI1 expression: high (no doxycycline) 0.0425 | 0.926 µM, library screen: screen3, EWS-FLI1 expression: low (doxycycline-induced shRNA knockdown) 0.0172 | 2.8 µM, library screen: screen3, EWS-FLI1 expression: high (no doxycycline) 0.104 | 2.8 µM, library screen: screen3, EWS-FLI1 expression: low (doxycycline-induced shRNA knockdown) 0.0265 | 8.3 µM, library screen: screen3, EWS-FLI1 expression: high (no doxycycline) 0.037 | 8.3 µM, library screen: screen3, EWS-FLI1 expression: low (doxycycline-induced shRNA knockdown) 0.0696 | 25 µM, library screen: screen3, EWS-FLI1 expression: high (no doxycycline) 0.0545 | 25 µM, library screen: screen3, EWS-FLI1 expression: low (doxycycline-induced shRNA knockdown) 0.0523

NS(=O)(=O)c1ccc2c(c1)CNCC2
inactive: [3] 0.162 | [4] 0.085 | [7] 0.143 | [8] 0.0805

CC(=O)[C@H]1CC[C@H]2[C@@H]3CC[C@H]4C[C@H](O)CC[C@]4(C)[C@H]3C(=O)C[C@]12C
active: [7] -2.77 | [8] -0.524

CC(=O)c1c(O)c(C)c(O)c(Cc2c(O)c3c(c(C(=O)/C=C/c4ccccc4)c2O)OC(C)(C)C=C3)c1O
inactive: 0.025 µM, library screen: screen1, EWS-FLI1 expression: high (no doxycycline) 0.0285 | 0.025 µM, library screen: screen1, EWS-FLI1 expression: low (doxycycline-induced shRNA knockdown) 0.0263 | [1] 0.0889 | [2] 0.0306 | [3] 0.209 | [4] 0.109 | [5] 0.055 | [6] -0.0112 | [7] 0.118 | [8] 0.156 | 25 µM, library screen: screen1, EWS-FLI1 expression: low (doxycycline-induced shRNA knockdown) -0.0436
active: 25 µM, library screen: screen1, EWS-FLI1 expression: high (no doxycycline) -0.306
